Reference: PubChem BioAssay AID1745853 (National Center for Advancing Translational Sciences (NCATS), 2022)
Where “and” joins values, the source holds several entries; their conditions need not be identical. Equal entries are not always repeated. This is one part of the list. These are further read-outs of the screen, such as a control signal, another cell line or another target. No call is given for them. Numbered stars: 1 amine (or outer) side, 2 acyl side, 3 side chain; on linkers, the order of the positions; unused ones are H or OH. Square brackets hold non-standard residues; d marks the D form. Peptide text beside a SMILES is read from it. X10 = O=C(C(CC(O)CO)O[*:1])[*:2]; NMeV = CN[CH](C(=O)O)C(C)C; NMeA = CN[CH](C)C(=O)O; βAla = NCCC(=O)O

Experiments:
Assay in all cases: Primary Screen for Target Class Profiling of Small Molecule Inhibitors of Methyltransferases
[1] = target: Glycine N-methyltransferase (Homo sapiens) (UniProt Q14749); settings: purified enzyme, MTase-Glo SAH luminescence; measured here: GNMT inhibition; at 40 µM; stronger effect = lower value
Outline: (§1)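 Each enzyme was assayed with SAM and its substrate. SAH formation detected by MTase-Glo luminescence; single-point 40 uM screen[…].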

[2] = target: Guanidinoacetate N-methyltransferase (Homo sapiens) (UniProt Q14353); settings: purified enzyme, MTase-Glo SAH luminescence; measured here: GAMT inhibition; at 40 µM; stronger effect = lower value
Outline: as §1

[3] = target: Histamine N-methyltransferase (Homo sapiens) (UniProt P50135); settings: purified enzyme, MTase-Glo SAH luminescence; measured here: HNMT inhibition; at 40 µM; stronger effect = lower value
Outline: as §1

[4] = target: Nicotinamide N-methyltransferase (Homo sapiens) (UniProt P40261); settings: purified enzyme, MTase-Glo SAH luminescence; measured here: NNMT inhibition; at 40 µM; stronger effect = lower value
Outline: as §1

[5] = target: Phenylethanolamine N-methyltransferase (Homo sapiens) (UniProt P11086); settings: purified enzyme, MTase-Glo SAH luminescence; measured here: PNMT inhibition; at 40 µM; stronger effect = lower value
Outline: as §1
% is scaled to controls: 0 for no effect and ±100 for the full control effect.

Compound | activity change, negative = inhibition [1] | activity change, negative = inhibition [2] | activity change, negative = inhibition [3] | activity change, negative = inhibition [4] | activity change, negative = inhibition [5]
Cc1cccc(N2CCN(S(=O)(=O)c3ccc4[nH]c5c(c4c3)CCCC5)CC2)c1C | 1.07% | 4.36% | -3.8% | 2.65% | 2.14%
COC(=O)[C@@]1(O)C=CC[C@@H]2[C@@]3(C)C[C@@H](c4ccoc4)OC(=O)[C@H]3CC[C@]21C | 2.69% | -0.779% | 8.91% | -13% | 6.99%
CNC(C)C(=O)NC(C(=O)N1CCCC1C(=O)Nc1snnc1-c1ccccc1)C1CCCCC1 (stereo not given) | 6.24% | 3.75% | 11.4% | -11.9% | 4.41%
CCC(C)C1NC(=O)C2CCCN2C(=O)C(CC(O)CO)OC(=O)CCNC(=O)C(C)N(C)C(=O)C(C(C)C)N(C)C1=O (stereo not given) (cyclo([X10]PI[NMeV][NMeA][βAla]); configuration not given here) | -0.182% | -1.41% | 1.59% | -13.2% | 3.48%
CC(C)c1nc(CNC(=O)c2ccc(NC3CCCCC3)nc2)no1 | -1.92% | -0.492% | -0.9% | -2.09% | -1.49%
Cc1ccc(C(=O)C(C)n2nc3n(CC(C)C)c(=O)c4ccc(C(=O)NCC(C)C)cc4n3c2=O)cc1C (stereo not given) | 7.32% | 1.22% | 11.1% | -0.304% | 6.6%
CCc1c(C)nn(CC(=O)N2CC(C)(C)[C@@](C)(O)C2)c1C | -5.09% | -5.25% | -2.06% | -7.08% | -4.63%
COCCCNC(=O)CCc1nnc2n(Cc3ccccc3Cl)c(=O)c3ccccc3n12 | 3.66% | 2.33% | 6.54% | 12.3% | 1.11%
COc1ccc(-c2nn(-c3ccccc3)cc2CN2CCC(F)CC2)c(F)c1 | -5.42% | -1.18% | -1.11% | -8.49% | -2.23%
O=C(CCc1nnc2n(Cc3ccc(F)cc3)c(=O)c3ccccc3n12)NCCN1CCCC1 | -8.53% | -28.8% | -47.2% | -2.88% | 2.65%
CC1CCC(NC(=O)c2cc3n(n2)CC(c2ccc(Cl)cc2)OC3)CC1 (stereo not given) | -11.7% | -10.4% | -7.95% | -10.8% | -3.47%
COc1ccc(C)cc1NC(=O)c1ncn2c1C(=O)N(C1CC1)C(C)(C(=O)NCc1ccc(F)cc1)C2 (stereo not given) | 1.3% | 2.34% | 14.6% | 5.21% | 9.94%
COc1ccc(NC(=O)N2CCn3cccc3C2Cc2ccccc2)cc1 (stereo not given) | -12.9% | 0.286% | -24.5% | -14.2% | -17.8%
CC1=NN(c2ccccc2)C(=O)C1 | -7.09% | -0.771% | 5.65% | -7.46% | 4.08%
COC1CCOC2(CCN(S(=O)(=O)c3cn(C)cn3)CC2)C1 (stereo not given) | 1.49% | 0.205% | 2.97% | -0.303% | 0.761%
CN(C)c1ccc(C2O[C@@H](c3ccccc3)C[C@H](c3ccccc3)O2)cc1 (stereo not given in full) | -3.5% | -0.98% | 7.82% | -15.2% | 0.707%
CC(C)N1C[C@@H](F)[C@@H](OCc2nc3ccc(F)cc3[nH]2)C1 | -9.04% | -7.72% | -5.52% | -12% | -7.13%
CN1C(=O)c2cc(C(=O)NCCc3ccc(Cl)cc3)nn2CC1(C)C(=O)NCc1ccccc1 (stereo not given) | 3.52% | 0% | -0.813% | 4.09% | 0.484%
CC(C)Cn1c(=O)c2ccc(C(=O)NC(C)C)cc2n2c(=O)n(Cc3ccc(Cl)cc3)nc12 | 5.07% | 0% | 7.72% | 1.04% | 5.93%

Compound | activity change, negative = inhibition [1] | activity change, negative = inhibition [2] | activity change, negative = inhibition [3] | activity change, negative = inhibition [4] | activity change, negative = inhibition [5]
O=C(Nc1ccccc1F)C1CN(C2CCCC2)C(=O)N1 (stereo not given) | -5.49% | -10.4% | -3.04% | -11.6% | -9.1%
CCOCCCNC(=O)C1c2c(n(C)c3ccccc23)SCC(=O)N1c1ccc(F)cc1F (stereo not given) | 14.7% | 1.71% | 7.19% | 11.4% | 11.5%
NCCCNCCCCNCCCN | 4% | 13.4% | 4.55% | -1.67% | 10.5%
CC(C)Cn1c(=O)c2ccc(C(=O)NC3CCCC3)cc2n2c(=O)n(CC(=O)NCc3ccccc3)nc12 | -0.104% | 1.82% | 2.33% | -1.04% | -1.87%
CCN(CC)CCNC(=O)c1cc(Cl)c(N)cc1OC | 0.396% and 5.08% | 7.41% and 7.49% | 0.285% and -0.994% | -9.66% and -7.76% | 4.73% and 2.85%
CC(=O)NCCNC(=O)C1CCCN(S(=O)(=O)c2ccccc2)CCC(=O)NCC1 (stereo not given) | -1.17% | 0.963% | 2.59% | -8.3% | -0.481%
Cc1cc(C)cc(NC(=O)Cn2nc3n(Cc4ccc(F)cc4)c(=O)c4ccccc4n3c2=O)c1 | -3.7% | -3.26% | 0.269% | -5.39% | -4.74%
c1ccc(-c2nnn3c2nc(N2CCCCC2)c2ccccc23)cc1 | -4.18% | -6.26% | -8.27% | -11.3% | -27.8%
CCOc1ccc2ccccc2c1C(=O)N[C@@H]1C(=O)N2[C@@H]1SC(C)(C)[C@@H]2C(=O)O | 6.47% | 3.71% | 8.44% | -12.5% | 2.78%
Cc1ccc(Cl)cc1N1CCN(S(=O)(=O)c2ccc3[nH]c4c(c3c2)CCCC4)CC1 | -3.1% | 5.18% | -4.21% | 2.12% | 1.9%
CNC(=O)C(C)N(C)C(=O)c1coc(CN2CCN(c3ccccc3F)CC2)n1 (stereo not given) | -2.27% | -1.63% | -0.129% | -9.97% | -2.42%
COc1ccc(CN2CCCC3(CC(c4cccc(C(F)(F)F)c4)=NO3)C2)cc1 (stereo not given) | -4.68% | -1.37% | -6.99% | -9.71% | -8.67%
CC1(C)C[C@H](NCC2CCCCC2)[C@@]2(CCC(=O)N3CCCC3)CC[C@](C)(O)C[C@@H]12 | 1.28% | 3.65% | -3.41% | -2.26% | 2.42%
C/C1=C\CC[C@]2(C)O[C@@H]2[C@H](O)[C@H](C(C)C)[C@H](OC(=O)/C=C/c2ccccc2)C1 | -1.5% | 5.14% | 5.84% | -8.16% | 0.857%
COC(=O)c1cc2n(n1)CC(C)(C(=O)NC1CCCCC1)N(Cc1ccccc1Cl)C2=O (stereo not given) | 2.81% | 4.97% | 5.73% | 3.39% | -3.56%
COc1ccccc1CNC(=O)C1(C)Cn2c(cc3ccccc32)C(=O)N1Cc1ccc(Cl)cc1 (stereo not given) | -3.83% | -2.95% | 0.071% | -5.58% | -5.27%
O=C(Nc1ccc(Cl)cc1)N1Cc2c(sc3c2CCCC3)-n2cccc2C1c1cccc(F)c1 (stereo not given) | 1.99% | 0.076% | 6.04% | -2.04% | 6.24%
N.N.O=C(O)C1(C(=O)O)CCC1.[Pt+2] | -95.7% | 3.45% | -2.08% | -3.8% | 8.23%
CN(C)C/C=C(/c1ccc(Br)cc1)c1cccnc1 | -18.2% | -0.608% | -95.4% | -15.6% | 1.88%
